The values below come from PubChem BioAssay AID1508642 (National Center for Advancing Translational Sciences (NCATS), 2021).

The whole screen tested about 43,000 compounds, of which about 200 (0.47%) were called active. Another 12% or so got no clear call; they are omitted. Calls come from the whole dose curve; as a rule, active = well fitted cell-killing curve with a large enough effect; inconclusive = small, poorly fitted or top-dose-only effect, or effect the other way; inactive = flat fitted curve, though single readings scatter. This is one part of the list.
% is set by controls: 0 for no effect and ±100 for the full control effect.

This experiment in a line: Cell viability qHTS assay in S16 Pmp22-F2sN cells. Note: nearly all actives have a fitted effect of over 65% in size. To be noted: S16 Pmp22-F2sN Schwann cells (luciferase reporters placed in the Pmp22 gene) viability, CellTiter-Glo, 24 h; series mostly up to 57.5 µM; activity change, negative = cytotoxicity: at the top concentration. An outline of the steps: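 Seed 500-1,000 S16 Pmp22-F2sN cells per well in phenol-red-free DMEM with 10% heat-inactivated FBS; pin-add 23 nL compound; incubate 24 h at 37C; add CellTiter-Glo, wait 15 min protected from light; read luminescence.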
Background: In qHTS, concentration-response curves come from the screen itself.
Take `CCOC(=O)c1c(C)[nH]c(C)c1S(=O)(=O)N(C)CC(=O)N1CCN(c2ccccc2)CC1`: the “activity change, negative = cytotoxicity” value was inactive: -14.8%. To `COc1ccc(CNc2nc3c(-c4cccc(C)c4)nnn3c3ccccc23)cc1` belongs inactive: 14.2%.

For `Cc1nn(CC(=O)N2CCC(C)CC2)c(=O)c2cc3sccc3n12`, the “activity change, negative = cytotoxicity” value is inactive: 12.2%. To `Cc1ccccc1CN1C(=O)c2ccccc2S(=O)c2ccc(C(=O)NC3CCC(C)CC3)cc21` (stereo unspecified) belongs inactive: -21.4%; to `CC(=O)N1c2c(cc(Br)cc2S(=O)(=O)N2CCN(c3cc(C)ccc3C)CC2)CC1C` (stereo unspecified), inactive: 7.92%.

As to `Cc1ccc(S(=O)(=O)c2nnn3c2nc(N2CCCC2)c2sccc23)cc1C`, the “activity change, negative = cytotoxicity” value was inactive: 9.54%. To `Cc1ccc(S(=O)(=O)c2nnn3c2nc(N2CCN(c4ccccc4F)CC2)c2cc(Cl)ccc23)cc1C` belongs inactive: 9.29%; to `O=C(c1ccc2c(c1)N(Cc1cccc(F)c1)C(=O)c1ccccc1S2)N1CCOCC1`, inactive: -9.17%; to `COc1ccc(OC)c(NC(=O)C2=C(C)C(=O)OC23CCCCCC3)c1`, inactive: -4.47%. To `CC1=C(C#N)C(NC(=O)c2ccccc2Cl)(C(F)(F)F)C(=O)N1` (stereo unspecified) belongs inactive: -4.32%. To `CCc1ccc(NC(=O)c2sc3nc(C)c(Cl)c(C)c3c2NC(=O)c2ccccc2OC)cc1` belongs inactive: -0.175%; to `O=C1CS(=O)(=O)C2(C(=O)N(Cc3ccccc3)c3ccccc32)N1c1ccccc1` (stereo unspecified), inactive: 3.91%; to `Cc1ccc(CCNC(=O)c2ccc3c(c2)nc2n3CCC(C)C2)cc1` (stereo unspecified), inactive: 3.19%. On to `COc1cc2c(cc1OC)C(COc1ccccc1OC)N(C(=O)COc1ccc(Cl)cc1)CC2` (stereo unspecified), for which the “activity change, negative = cytotoxicity” value was inactive: -4.53%. To `O=C(C1CCN(c2ncnc3c2nc2n3CCCCC2)CC1)N1CCN(c2cccc(Cl)c2)CC1` belongs inactive: -27.6%. To `COc1ccc(OC)c(CNC(=O)Cc2ccc(NC(=O)N3CCSc4ncccc43)cc2)c1` belongs inactive: -1.86%; to `CCOC(=O)C1(C)C=C(Nc2cccc(C(=O)O)c2)C(=O)N1c1cccc(C(=O)O)c1` (stereo unspecified), inactive: 0.774%; to `COc1ccc(-c2noc(-c3ccc(N4CCN(c5ccccc5)CC4)c([N+](=O)[O-])c3)n2)cc1OC`, inactive: -1.8%. Turning to `CCCCc1nn2c(=O)cc(COC(=O)c3ccc(NC(=O)c4ccccc4C)cc3)nc2s1`, the “activity change, negative = cytotoxicity” value was inactive: 19.8%.

For the molecule `Cc1ccc(CNS(=O)(=O)c2ccc3[nH]c4c(c3c2)CCCC4)cc1`, the “activity change, negative = cytotoxicity” value was inactive: -12.6%. For `Cc1cc(F)ccc1NS(=O)(=O)c1ccc(-n2cccn2)cc1`, the “activity change, negative = cytotoxicity” value was inactive: -14.3%.

For `Cc1cc(C)n(CCc2nc3c4ccccc4nc(N4CCN(c5ccccc5)CC4)n3n2)n1`, the “activity change, negative = cytotoxicity” value was inactive: 12.2%. For the molecule `O=C(CCn1cnnn1)Nc1ccc(F)cc1`, the “activity change, negative = cytotoxicity” value was inactive: -3.22%.

In the case of `Cc1ccc(NC(=O)CSc2ccc(-c3cccs3)nn2)cc1Cl`, the “activity change, negative = cytotoxicity” value was inactive: 21.4%. To `CN(c1ccccc1)S(=O)(=O)c1ccc(NC(=O)c2cc(=O)c3ccccc3o2)cc1` belongs inactive: 9.57%; to `COCC(=O)NCc1nc2cccnc2n1Cc1ccc(F)cc1`, inactive: 0.4%.
